{
  "source": "PubChem BioAssay AID1347417",
  "about": "(National Center for Advancing Translational Sciences (NCATS), 2020)",
  "note": "About 5,300 (4.4%) of roughly 120,000 compounds were called active. Inconclusive means that the source gave no clear call. Such entries were picked first, then a sample of the others. The call rests on the fitted dose curve; in most records, active means well fitted inhibition curve with a large enough effect; inconclusive means small, poorly fitted or top-dose-only effect; inactive means no such curve, though single readings can be large or run the other way. Potencies beside an inconclusive call are fits to weak or partial responses and may not hold up.",
  "data": [
    {"assay": "qHTS Primary assay for Inhibitors of Plasmodium falciparum Dd2 growth in vitro; further: nearly all actives have a fitted effect of over 65% in size; further: potency means the concentration at half of the fitted maximal effect; tags describe the fitted curve by direction and shape;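 on activity, negative = inhibition: plate controls were DMSO vehicle for no effect and reference drug for full effect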", "conditions": "P. falciparum Dd2 growth, SYBR Green, 72 h; activity, negative = inhibition: at 28.9 µM (top of the series) unless noted; series mostly up to 28.9 µM", "how_it_was_run": "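Infected erythrocytes (Dd2, 0.3% parasitemia, 2.5% hematocrit final) are added to compound in RPMI-1640/Albumax II medium, grown 72 h at 37C in low oxygen, then lysed with saponin/Triton-X containing SYBR Green and read by fluorescence.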", "values": [
      {"compound": "CCCCCOc1ccc(C(=O)N(Cc2ccccc2)C2CCS(=O)(=O)C2)cc1", "note": "(centres undefined)", "Potency": "inconclusive: 17.8 µM [inhibitor, single point]"},
      {"compound": "CCCc1noc(-c2cccn3c(CNC(=O)c4ccccc4C)nnc23)n1", "outcome": "inactive"},
      {"compound": "COC1C(=O)N(c2cccc(F)c2)C12CCN(S(=O)(=O)Cc1ccccc1F)CC2", "note": "(centres undefined)", "Potency": "inconclusive: 17.8 µM [inhibitor, single point]"},
      {"compound": "COC[C@@H]1CCCN1Cc1cc2ccc(C)cc2nc1-c1ccc(OC)cc1", "Potency": "active: 14.1 µM"},
      {"compound": "COCCc1noc([C@@H]2CC(F)(F)CN2C(=O)Cc2ccncc2)n1", "activity, negative = inhibition": "inactive: 26.1%"},
      {"compound": "COc1ccccc1C(=O)N1CCC2(CCC(=O)N(Cc3ccccc3)CC2)CC1", "Potency": "inconclusive: 17.8 µM [inhibitor, single point]"},
      {"compound": "CN1CC2(CCN(Cc3cn[nH]c3-c3cccs3)CC2)CC1C(=O)N1CCOCC1", "note": "(centres undefined)", "Potency": "inconclusive: 15.8 µM [inhibitor, single point]"},
      {"compound": "COc1ccccc1C(=O)NCCn1ccn2nc(-c3cc(C)ccc3C)cc2c1=O", "Potency": "inconclusive: 2 µM [inhibitor, full curve]"},
      {"compound": "COCC(=O)N[C@@H]1CN(C(=O)c2ccnn2C)CC[C@@H]1c1nc(C)no1", "activity, negative = inhibition": "inactive: 64% [at 5.79 µM]"},
      {"compound": "CN(C)c1cccc(NC(=O)Cc2c[nH]c3ncc(-c4ccccc4)cc23)c1", "Potency": "inconclusive: 10 µM [inhibitor, partial curve, poor fit]"},
      {"compound": "CC(=O)N[C@H]1CN(c2cncc(C(=O)N3CCCC3)n2)C[C@@H]1C1CC1", "Potency": "inconclusive: 3.98 µM [inhibitor, single point]"},
      {"compound": "COCCOCC1(CNC(=O)c2cnccn2)C[C@@H](O)[C@@H](O)C1", "note": "(some centres undefined)", "Potency": "inconclusive: 1.26 µM [inhibitor, full curve]"},
      {"compound": "Cc1ccc(C)c(NC(=O)NCC2CCOCC2)c1", "activity, negative = inhibition": "inactive: 1.04%"},
      {"compound": "O=C(CN1C(=O)NC(c2ccc(Cl)cc2)C2=C1COC2=O)Nc1cccc(Br)c1", "note": "(centres undefined)", "Potency": "inconclusive: 3.16 µM [inhibitor, full curve, poor fit]"},
      {"compound": "O=C(Nc1cccc(OC(F)(F)F)c1)[C@@H]1COCC(=O)N1Cc1ccc(F)cc1", "Potency": "inconclusive: 17.8 µM [inhibitor, single point]"},
      {"compound": "Oc1ccccc1CN1CCOC[C@H]1c1ncc(-c2cccc(Cl)c2)[nH]1", "Potency": "active: 3.16 µM"},
      {"compound": "O=C(Cc1cccn1-c1ccc(F)cc1)NC1CCCC1", "Potency": "inconclusive: 20 µM [inhibitor, single point]"},
      {"compound": "Cc1cc(C[C@@H]2COC[C@@H]2NC(=O)c2cc(C)oc2-c2ccccc2)on1", "activity, negative = inhibition": "inactive: 9.87%"},
      {"compound": "N#Cc1ccc(C(=O)N2CCC3(CC2)NC(=O)N(Cc2cccc(Cl)c2)C3=O)cc1", "Potency": "inconclusive: 2 µM [inhibitor, single point]"}
    ]}
  ]
}
